The source of these data is PubChem BioAssay AID1240 (Sanford-Burnham Center for Chemical Genomics, 2008).

In all, about 50,000 compounds went through this assay and about 800 (1.6%) showed an effect of 50% or more. This is one part of the list.

The assay addresses Bcl-2-like protein 10 (Homo sapiens) (UniProt Q9HD36). As to the kind of experiment: TR3 peptide-Bcl-B binding displacers, biochemical primary FP assay, phenotype converters (AID 1240).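 Also: 0% = Bcl-B with tracer peptide and DMSO and 100% = tracer peptide lacking Bcl-B.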 The note with it: GST-Bcl-B / FITC-TR3 peptide fluorescence polarization; stronger effect = higher value; compound at 3.75 mg/L.
UniProt Q9HD36, sequence (Q9HD36 whole entry, looked up): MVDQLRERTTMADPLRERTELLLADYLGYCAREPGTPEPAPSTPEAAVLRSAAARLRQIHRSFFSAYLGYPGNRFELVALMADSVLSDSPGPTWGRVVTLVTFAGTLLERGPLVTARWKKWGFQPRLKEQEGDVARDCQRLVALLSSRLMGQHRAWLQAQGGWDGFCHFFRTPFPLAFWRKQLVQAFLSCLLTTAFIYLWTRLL
Regarding `CN=C(C)C1=C(O)C(C(=O)OC)C(C)(C)CC1=O` (stereo not drawn), the displacement was determined as 6.2%.
Turning to `CCOc1cc(C(=S)N2CCOCC2)ccc1OC(=O)Cc1ccccc1`, the displacement came out at 4.2%.
On to `Cc1cccc(OCC(=O)NCc2cccnc2)c1`, for which the displacement was -2.5%.
Take `COC(=O)c1cc(C(=O)N2CCc3ccccc3C2)cc([N+](=O)[O-])c1`: the displacement is 15.4%.
With `Cc1cc(OCC(=O)Nc2sc3c(c2C(N)=O)CCC(C)C3)ccc1Cl` (stereo not drawn), the displacement is 2.8%.
In the case of `C/C(CC(=O)Nc1cccc2c1CCCC2)=N\NC(=O)C(=O)NC1CCCCC1`, the displacement is -14.9%.
Turning to `O=C1c2ccccc2C(=O)N1CCS(=O)(=O)NC12CC3CC(CC(C3)C1)C2`, the displacement was -3.7%.
With `Cc1ccc(OCC(=O)Nc2ccccc2C(=O)O)c(Br)c1`, the displacement is -4.5%.
For `COc1ccc(NC(=O)COc2cccc3ccccc23)cc1Cl`, the displacement is 4.8%.
With `O=C(/C=C/c1cccc([N+](=O)[O-])c1)NCCCn1ccnc1`, the displacement was -1.5%.
Take `COc1ccccc1OCCCc1c(C)n[nH]c1C`: the displacement is -9.3%.
As to `Cc1ccccc1C(=O)Nc1cc(C(=O)O)cc(C(=O)O)c1`, the displacement worked out at 3.3%.
As to `Cc1ccc2c(c1)NC(c1ccccc1)C1=C(CC(C)(C)CC1=O)N2` (stereo not drawn), the displacement was -3.1%.
Take `O=c1oc2c(-c3cccc(Cl)c3)cc(O)cc2s1`: the displacement was -0.7%.
Turning to `O=Cc1cn(CCC(=O)O)c2ccccc12`, the displacement was -10.1%.
Take `O=C(c1ccc(F)cc1)N1CCN(C2C3CC4CC(C3)CC2C4)CC1` (stereo not drawn): the displacement was -13.3%.
Turning to `COc1ccc2oc(=O)c(C(=O)Nc3c(C)n(C)n(-c4ccccc4)c3=O)cc2c1`, the displacement is -3.9%.
Regarding `CCCOC(=O)C1=C(C)NC2=C(C(=O)CC(c3ccccc3)C2)C1c1ccccc1Br` (stereo not drawn), the displacement is 0.1%.
`O=C(Nc1ccccc1C(=O)N/N=C/c1ccco1)c1ccccc1`: the displacement is 46.3%.
As to `CC(C)OC(=O)COc1ccc2c(-c3ccccc3)cc(=O)oc2c1`, the displacement was determined as 13.2%.
`CCOc1ccc(-n2c(O)c(C=C3C=CC=N3)c(=O)[nH]c2=O)cc1`: the displacement stood at 13.1%.
Take `Cc1ccc(-c2ccc(OC(=O)c3ccco3)cc2)cc1`: the displacement amounted to 13.8%.
For the compound `CCc1c(C#N)c(N)nc(SCC(=O)c2ccc(-c3ccccc3)cc2)c1C#N`, the displacement is -2.3%.
As to `O=C(NC(=S)NCc1ccco1)c1ccc(Br)cc1`, the displacement is -7.3%.
As to `O=c1ccnc2c1c(-c1ccccc1)nc1[nH]onc12`, the displacement was determined as 5.6%.
As for `O=C(COc1ccc2ccccc2c1)Nc1ccc(Cl)cc1`, the displacement is 7.8%.
On to `CCOC(=O)C(C)C(O)C(=O)OCC` (stereo not drawn), for which the displacement stood at 5.2%.
As to `COc1ccc(Cl)cc1C(=O)Nc1nc(-c2ccc(C)cc2)cs1`, the displacement is 1%.
Turning to `COc1cc2c(cc1OC)CN(c1ccc(C(=O)O)cc1)C(=O)C2`, the displacement is -5.8%.
On to `COc1cc(C(=S)N2CCOCC2)cc(I)c1O`, for which the displacement was -6.4%.
As for `COC(=O)C1(S(=O)(=O)c2ccc(Cl)cc2)CCOCC1`, the displacement is -0.3%.
`COC(=O)c1ccc(C2C(C(=O)OCC(C)C)=C(C)NC3=C2C(=O)CCC3)cc1` (stereo not drawn): the displacement was found to be 5.4%.
As for `Cc1ccccc1C(=O)Nc1sc2c(c1C(=O)N1CCCC1)CCCCC2`, the displacement turned out to be 17.5%.
`CCOC(=O)C1=C(C)N=c2s/c(=C\c3cccc([N+](=O)[O-])c3)c(=O)n2C1c1cccc(OC)c1` (stereo not drawn): the displacement stood at 4.1%.
Then `CC(C)c1ccc(C2/C(=C(/O)c3ccccc3)C(=O)C(=O)N2CC2CCCO2)cc1` (stereo not drawn), with 1.1%.
For `C=CCN1C(=O)/C(=C\c2ccc(-c3cccc([N+](=O)[O-])c3)o2)C(=O)NC1=S`, the displacement was 12.9%.
In the case of `CCCc1ccc(C(=O)N2c3ccccc3C(Nc3ccccc3)CC2C)cc1` (stereo not drawn), the displacement stood at 12.9%.
Take `C=CCN(CC=C)C(=S)Nc1ccc2nc(-c3ccccc3)c(-c3ccccc3)nc2c1`: the displacement is -6.6%.
`Nc1cc(C(=O)c2ccc(Cl)c(N)c2)ccc1Cl`: the displacement was -4.6%.
Turning to `CCOc1ccc(/C=C2/SC(=S)N(CN3CCOCC3)C2=O)cc1`, the displacement amounted to 8.8%.
On to `COC(=O)c1ccc(N2C(=O)CC(NCc3ccccc3)C2=O)cc1` (stereo not drawn), for which the displacement was -6.6%.
Turning to `Cc1cc(OCCc2c(C)n[nH]c2C)ccc1Cl`, the displacement turned out to be 2.9%.
With `COc1ccc2c(c1)-c1c(ssc1=Nc1ccc(S(=O)(=O)NC(C)=O)cc1)C(C)(C)N2`, the displacement was -15%.
`CCOc1ccccc1NC(=O)C(=O)NCCCOC`: the displacement worked out at 17.8%.
In the case of `O=C(Nc1ccccc1O)c1ccc2c(c1)OCCO2`, the displacement was -1.6%.
Then `O=C(NCCCN1CCOCC1)/C(=C/c1cccs1)NC(=O)c1ccccc1`, with 8.5%; and `CCOC(=O)CC(=O)CSc1nc(C)c2cc(OCC)ccc2n1`, with 67.2%.
Turning to `COC(=O)c1c(C)oc2ccc(OC(=O)c3ccc([N+](=O)[O-])cc3)cc12`, the displacement worked out at 8%.
For the compound `O=C(NC(=S)Nc1ccc2c(c1)-c1ccccc1C2)c1ccccc1`, the displacement is 51.9%.
For `CCOC(=O)c1ccc(Nc2nc3nonc3nc2NCc2ccco2)cc1`, the displacement turned out to be 2.3%.
As to `CN1CCN(/N=C2\C(=O)Nc3ccccc32)CC1`, the displacement was 10.1%.
Consider `CCCC1=NN(c2ccc([N+](=O)[O-])cc2)C(=O)/C1=C/c1cccc([N+](=O)[O-])c1`, for which the displacement was -10.5%.
Consider `COc1cccc(NC(=O)/C(=C/c2ccccc2)c2ccccc2)c1`, for which the displacement was 12.8%.
Then `COCCOC(=O)C1=C(C)NC(=O)NC1c1ccc(OCC(N)=O)cc1` (stereo not drawn), with 7.7%.
In the case of `Cc1cccc(C)c1NC(=O)C1COc2ccccc2O1` (stereo not drawn), the displacement turned out to be 0.6%.
Take `COC(=O)CSc1nc2ccc(N)cc2s1`: the displacement came out at 0.3%.
As for `COc1ccc(Br)cc1/C=N/NC(=O)CSc1nc2ccccc2n1C`, the displacement is -13.1%.
For the compound `CCCCCCCNC1CC(=O)N(c2ccc(F)cc2)C1=O` (stereo not drawn), the displacement was -10%.
In the case of `COc1ccccc1N1CCN(/N=C(/C)c2ccc(Br)cc2)CC1`, the displacement is -11.9%.
Consider `O=C(Nc1ccc(Cl)cc1)Nc1nnc(-c2cccs2)s1`, for which the displacement was 9.6%.
Consider `CC1(C)CC(=O)C(C(C2=C(O)CC(C)(C)CC2=O)c2cccc(OCc3ccccc3)c2)C(=O)C1` (stereo not drawn), for which the displacement is -1.7%.
With `CCOC(=O)C1=C(c2ccccc2)OC(N)=C(C#N)C1c1cccc(OC)c1` (stereo not drawn), the displacement is 2.2%.
With `CC(=O)Oc1ccc(/C=C2\SC(=S)NC2=O)cc1`, the displacement was 23.9%.
Consider `O=C(c1ccc([N+](=O)[O-])cc1)N1CCN(Cc2ccccc2Br)CC1`, for which the displacement was -12.7%.
Regarding `O=c1[nH][nH]c(=O)c2cc(N3CCCC3)ccc12`, the displacement amounted to 4.4%.
Then `Cc1ccc(-c2ccc(OC(=O)COc3ccccc3Cl)cc2)cc1`, with 21%.
With `COc1ccc(C2=NN(C(C)=O)C(c3ccc(OC)cc3)C2)cc1` (stereo not drawn), the displacement is 3.2%.
On to `O=C(c1ccccc1F)N1CCN(C2CCN(Cc3ccccc3)CC2)CC1`, for which the displacement worked out at 3.4%.
Regarding `Cc1ccccc1Nc1ccc([N+](=O)[O-])c2nonc12`, the displacement turned out to be 7.6%.
With `CCN(CC)c1ccc(C2NC(=O)NC(C)=C2C(=O)OCCC#N)cc1` (stereo not drawn), the displacement worked out at 3.3%.
As to `Cc1ccc2c(c1)NC(c1ccc(Cl)cc1Cl)C1=C(CC(C)(C)CC1=O)N2` (stereo not drawn), the displacement was 13.5%.
On to `CCOc1cc(/C=C2/SC(=S)NC2=O)cc(Cl)c1OCc1ccc(Cl)cc1Cl`, for which the displacement is -5.3%.
`CCOc1ccc(NC(=O)c2c(NC(=O)CCC(=O)O)sc3c2CCCC3)cc1`: the displacement was -6.7%.
The result for `COC(=O)C1=C(C)N(C)C(C)=C(C(=O)OC)C1c1cc(Br)ccc1OC` reads -4.1%.
Regarding `Cc1ccc(Cl)cc1N(Cc1ccc(C(=O)N2CCCC2)cc1)S(=O)(=O)c1ccccc1`, the displacement worked out at 3.2%.
On to `C=C(C)CSc1nnc2n(Cc3ccccc3)c(=O)c3c4c(sc3n12)CCC4`, for which the displacement is 0.7%.
On to `COc1ccc2c(c1)NC(C)(C)c1sn(-c3ccccc3)c(=S)c1-2`, for which the displacement worked out at 1.5%.
With `Cc1cc(C)n(C(=O)COc2cccc3ccccc23)n1`, the displacement turned out to be 19.1%.
In the case of `O=S(=O)(c1cccc2cccnc12)N1CCCc2ccccc21`, the displacement was -5.3%.
The result for `COc1ccc(NC(=O)C2C(C=C(Cl)Cl)C2(C)C)cc1` (stereo not drawn) reads 7.5%.
`Cc1cc(C)nc(SCC(=O)n2c3ccccc3c3ccccc32)n1`: the displacement is -13.4%.
As for `CC(=O)Nc1cc(-c2ccccc2)nn1Cc1ccccc1`, the displacement is -3%.
Take `CCOc1ccccc1NC(=O)C(=O)NCc1cccnc1`: the displacement was 7.3%.
Turning to `CC(C)Oc1ccc(C(Cc2nc3ccccc3[nH]2)c2nc3ccccc3[nH]2)cc1` (stereo not drawn), the displacement is -11.6%.
Then `COc1ccc(-c2cn3cccc(C)c3n2)cc1Br`, with 6.9%.
`Cc1ccc(N(CC(=O)NCc2cccnc2)S(C)(=O)=O)cc1`: the displacement was determined as 12.1%.
Turning to `COc1cc(C=C2C(=O)N(C)C(=O)N(C)C2=O)cc(Cl)c1OCCOc1ccccc1`, the displacement is 13.5%.
With `Cc1cccc(NC(=O)C2C3C=CC(C4CC34)C2C(=O)O)c1C` (stereo not drawn), the displacement stood at 0.9%.
In the case of `O=C1S/C(=C/c2ccc(O)c([N+](=O)[O-])c2)C(=O)N1c1ccccc1`, the displacement came to 8%.
As to `COC(=O)c1cc(NC(=O)Cc2ccccc2[N+](=O)[O-])cc(C(=O)OC)c1`, the displacement was -8%.
Then `O=[N+]([O-])c1ccc(C2Oc3ccccc3C3CC(c4ccccc4)=NN32)s1` (stereo not drawn), with -14%; and `COC(=O)C1=CNC=C(C(=O)OC)C1c1ccc(OC)c(OC)c1OC`, with 2.4%.
Take `CC(Oc1ccccc1)C(=O)Nc1ccncc1` (stereo not drawn): the displacement was -0.6%.
With `COc1ccc(C(=O)NNC(=O)c2ccc(C)cc2)c(OC)c1`, the displacement was -8.4%.
As for `Cc1cccc(NC(=O)CC2Nc3ccccc3NC2=O)c1` (stereo not drawn), the displacement was -0.6%.
`COc1ccccc1NC(=S)NC(NC(=O)c1cc(OC)c(OC)c(OC)c1)C(Cl)(Cl)Cl` (stereo not drawn): the displacement was 10.2%.
`CC(=O)N1c2ccc(C)cc2C(Nc2ccc(C)cc2)CC1C` (stereo not drawn): the displacement came to 0.2%.
With `Cc1ccccc1N(CC(=O)Nc1ccc(Cl)c(Cl)c1)S(C)(=O)=O`, the displacement was -4.9%.
Consider `O=C(N/N=C/c1ccco1)c1cc(=O)[nH]c2ccccc12`, for which the displacement was -2.7%.
Take `COc1ccc(/C=C2\SC(=S)N(NC(=O)c3ccccc3)C2=O)cc1OC`: the displacement amounted to 5.7%.
As to `CC(C)C1=CC(=NS(=O)(=O)c2ccc(Cl)cc2)C=C(C(C)C)C1=O`, the displacement was determined as 1.6%.
As to `COc1ccc(C2CC(C(F)(F)F)n3nc(C(=O)N4CCSCC4)cc3N2)cc1` (stereo not drawn), the displacement was 5.5%.
The result for `O=C(c1ccc(-c2ccccc2)cc1)N1CCN(Cc2ccc(Cl)cc2)CC1` reads 21.2%; that for `S=C(c1ccc(OCc2ccccc2)cc1)N1CCN(c2cccc(Cl)c2)CC1`, 14%.
Regarding `Cc1nc(C)c(/C(O)=C/c2nc3ccc([N+](=O)[O-])cc3oc2=O)s1`, the displacement is -12%.
As for `O=C1C(=O)N(c2ncc(S(=O)(=O)c3ccc([N+](=O)[O-])cc3)s2)C(c2ccc(F)cc2)/C1=C(\O)c1ccc(Cl)cc1` (stereo not drawn), the displacement came to 18.3%.
As for `Clc1ccc2nc(N/N=C/c3ccc4c(c3)OCO4)nc(-c3ccccc3)c2c1`, the displacement was 83.7%.
As for `CC(=O)Cc1cc(O)c2ccccc2c1OC(=O)c1ccc(C)cc1`, the displacement stood at 2.3%.
